# Results from PMC4336329 (PLoS ONE, 2015).
# Screen size: about 310,000 compounds; about 14,000 (4.5%) showed an effect of 50% or more. Effects have a minus sign here. The list shows a part of the results.
# Molecular target: human ether-à-go-go-related gene (hERG) potassium channel (human, UniProt Q12809)
# Experiment: primary screen, population patch clamp on CHO cells stably expressing hERG
# 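Also: peak tail current of the secondary pulse compared with the same well before compound.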
# human ether-à-go-go-related gene (hERG) potassium channel, sequence (Q12809 whole entry, looked up): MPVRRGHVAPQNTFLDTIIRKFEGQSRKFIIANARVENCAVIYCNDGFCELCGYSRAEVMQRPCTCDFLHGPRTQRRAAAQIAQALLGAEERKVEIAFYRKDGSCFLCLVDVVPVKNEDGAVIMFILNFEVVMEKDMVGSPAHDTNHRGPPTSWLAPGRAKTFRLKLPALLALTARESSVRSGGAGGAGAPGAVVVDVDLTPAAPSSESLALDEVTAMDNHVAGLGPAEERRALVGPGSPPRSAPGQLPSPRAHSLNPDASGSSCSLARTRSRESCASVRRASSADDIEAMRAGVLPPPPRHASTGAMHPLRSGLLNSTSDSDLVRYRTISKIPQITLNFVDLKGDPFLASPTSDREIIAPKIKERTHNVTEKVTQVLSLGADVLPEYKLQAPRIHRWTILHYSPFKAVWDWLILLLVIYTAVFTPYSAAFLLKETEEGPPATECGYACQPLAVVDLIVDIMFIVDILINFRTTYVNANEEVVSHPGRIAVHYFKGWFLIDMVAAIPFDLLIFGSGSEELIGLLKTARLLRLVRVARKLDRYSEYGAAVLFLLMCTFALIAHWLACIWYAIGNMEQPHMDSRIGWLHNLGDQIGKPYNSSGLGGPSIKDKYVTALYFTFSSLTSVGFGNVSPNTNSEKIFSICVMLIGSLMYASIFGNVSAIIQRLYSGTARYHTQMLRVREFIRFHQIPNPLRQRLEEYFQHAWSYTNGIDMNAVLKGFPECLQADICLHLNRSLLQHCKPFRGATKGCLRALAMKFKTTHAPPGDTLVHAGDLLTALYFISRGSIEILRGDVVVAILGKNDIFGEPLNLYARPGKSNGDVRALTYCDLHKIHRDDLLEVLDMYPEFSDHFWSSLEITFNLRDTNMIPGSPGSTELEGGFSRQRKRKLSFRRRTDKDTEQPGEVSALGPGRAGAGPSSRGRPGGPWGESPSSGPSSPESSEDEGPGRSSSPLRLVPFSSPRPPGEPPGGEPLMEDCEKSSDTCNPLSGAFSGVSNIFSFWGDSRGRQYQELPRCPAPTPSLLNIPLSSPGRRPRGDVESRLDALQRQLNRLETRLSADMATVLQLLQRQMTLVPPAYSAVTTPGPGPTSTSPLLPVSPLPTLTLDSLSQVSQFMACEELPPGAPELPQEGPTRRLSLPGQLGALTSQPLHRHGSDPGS
row,Compound,"hERG current change (%, negative = inhibition) at 10uM"
1,CC(=O)c1ccc(N2CCN(CC3CCCCC3)CC2)cc1,-24%
2,CC(=O)Nc1ccc(S(=O)(=O)N2CCC(C(=O)NC3CCCC3)CC2)cc1,-0.813%
3,N#C/C(=C\c1ccc[nH]1)S(=O)(=O)c1ccccc1,9.66%
4,OC(CN1CCC(c2c[nH]c3ccccc23)CC1)C(F)(F)F (stereo not shown),2.96%
5,CN(C)/C(=N\S(=O)(=O)c1ccccc1)c1ccc([N+](=O)[O-])cc1,4.32%
6,O=C(Nc1ccccc1)C1CCCN1S(=O)(=O)c1cccs1 (stereo not shown),13.7%
7,CC(=O)Nc1ccc(S(=O)(=O)N2CCN(C(=O)c3ncoc3-c3cccc(F)c3)CC2)cc1,4.84%
8,O=c1[nH]c(Cc2ccccn2)nc2scc(-c3ccccc3Cl)c12,-13.9%
9,CC(C(=O)N1c2ccc(F)cc2CCC1C)N1C(=O)c2ccccc2C1=O (stereo not shown),2.72%
10,Cc1cc(C)c(NC(=O)C(C)c2cccc(C(=O)c3ccccc3)c2)c(C)c1 (stereo not shown),0.99%
11,COCc1cc(C)nc(OCC(=O)N/N=C/c2ccco2)c1C#N,21.4%
12,CCNc1ccc(S(=O)(=O)N(C)C)cc1NCC(=O)Nc1ccccc1Br,28%
13,Cc1onc(-c2c(Cl)cccc2Cl)c1NC(=O)N(C)N,-0.387%
14,CCC1Oc2ccccc2N(CC(=O)NCc2ccco2)C1=O (stereo not shown),13%
15,Cc1ccc(C(=O)OCn2ncc(Cl)c(Cl)c2=O)cc1,-7.78%
16,CCOC(=O)N1CCN(C(=O)c2ccccc2NC(=O)c2ccc(C(C)(C)C)cc2)CC1,-10.1%
17,CC(C)Cn1c(-c2ccc(Cl)cc2)cnc1SCC(=O)N1CCOCC1,-19.6%
18,Cc1cccc(NC(=S)NC23CN4CN(CN(C4)C2)C3)c1,3.61%
19,CCn1cc(Br)c(C(=O)NC(C)c2ccccc2)n1 (stereo not shown),-1.15%
20,COC(=O)N1[C@H](C)C=C[C@]1(Cc1ccccc1)C(=O)NCCCNc1ncc(C(F)(F)F)cc1Cl,-10.5%
21,CCN(Cc1ccccc1)C(=O)CC(=O)N(CC)Cc1ccccc1,9.05%
22,Cc1ccc(CNc2oc(-c3cccs3)nc2C#N)cc1,0.132%

row,Compound,"hERG current change (%, negative = inhibition) at 10uM"
1,Cn1cc(CCC(=O)N2CCCC(N3CCN(c4ccccc4F)CC3)C2)cn1 (stereo not shown),-8.85%
2,CCOc1ccc(CCNC(=O)CSC(=S)N2CCCC2)cc1OCC,4.3%
3,Cc1ccc(C)c(NC(=O)c2ccc3nccnc3c2)c1,2.6%
4,COc1ccc(C2N(c3cc(C)on3)C(=O)C3CCCN32)cc1OC (stereo not shown),7.98%
5,Cn1c(=O)c2c(O)c(C=NCc3ccccc3)c(=O)n(C)c2n(C)c1=O,6.84%
6,CCC(=O)N[C@@H]1CC(C(C)(C)NC(=O)CC)CC=C1C (stereo partly shown),15.4%
7,CC1CCc2c(sc(NC(=S)NC(=O)c3ccccc3)c2C#N)C1 (stereo not shown),7.01%
8,CC(=O)c1ccc(NC(=O)COC(=O)c2ccccc2Sc2ccccc2C#N)cc1,18%
9,CCCCCCCc1nc2sc3c(c2c(=O)n1N)CC(C)(C)OC3,12.2%
10,COC(=O)Cn1c(=NC(=O)c2ccc(Cl)s2)sc2cc(F)ccc21,20%
11,CCOc1cc(N2CCOCC2)c(OCC)cc1NC1=NCCCCC1.Cl,11.3%
12,CSc1ccc(CN2CCN(C(=O)Cc3ccccc3)CC2)cc1,-12.1%
13,O=S(=O)(c1ccccc1)N1CCN(Cc2ccccc2C(F)(F)F)CC1,-2.81%
14,Cc1ccc(-c2nc3ncccc3o2)cc1NC(=O)COc1ccccc1,4.88%
15,COC(=O)c1c(NC(=O)c2ccccc2C(=O)O)sc2c1CCC2,11.1%
16,O=C1C(Cc2ccccc2O)NC(=S)N1c1ccccc1 (stereo not shown),-2%
17,CC(Nc1nc(N2CCCCC2)nc2ccccc12)c1ccccc1 (stereo not shown),-63.6%
18,CCO.CCOC(=O)C1=C(C)Nc2sc(C(=O)c3ccc(C)cc3)c(N)c2C1c1ccc(C(=O)OC)cc1 (stereo not shown),21.9%
19,Cc1ccc(C(C)C)c(OCC(=O)NNC(=O)C(C(C)C)N2C(=O)c3ccccc3C2=O)c1 (stereo not shown),3.3%
20,Cc1cccc(NS(=O)(=O)c2cccc(C(=O)NCCCN3CCOCC3)c2)c1,-10.8%
21,Cc1ccc(C)c(S(=O)(=O)N2CCN(C(=O)c3cc(S(=O)(=O)NCc4ccccc4)ccc3C)CC2)c1,1.79%
